# Out of some 310,000 compounds screened, about 14,000 (4.5%) showed an effect of 50% or more. The effect is printed as a negative number. The list shows a part of the results.
# Target: human ether-à-go-go-related gene (hERG) potassium channel (human, UniProt Q12809)
# Assay: primary screen, population patch clamp on CHO cells stably expressing hERG
# 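Also: peak tail current of the secondary pulse compared with the same well before compound.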
# Chain of human ether-à-go-go-related gene (hERG) potassium channel (Q12809 whole entry, looked up): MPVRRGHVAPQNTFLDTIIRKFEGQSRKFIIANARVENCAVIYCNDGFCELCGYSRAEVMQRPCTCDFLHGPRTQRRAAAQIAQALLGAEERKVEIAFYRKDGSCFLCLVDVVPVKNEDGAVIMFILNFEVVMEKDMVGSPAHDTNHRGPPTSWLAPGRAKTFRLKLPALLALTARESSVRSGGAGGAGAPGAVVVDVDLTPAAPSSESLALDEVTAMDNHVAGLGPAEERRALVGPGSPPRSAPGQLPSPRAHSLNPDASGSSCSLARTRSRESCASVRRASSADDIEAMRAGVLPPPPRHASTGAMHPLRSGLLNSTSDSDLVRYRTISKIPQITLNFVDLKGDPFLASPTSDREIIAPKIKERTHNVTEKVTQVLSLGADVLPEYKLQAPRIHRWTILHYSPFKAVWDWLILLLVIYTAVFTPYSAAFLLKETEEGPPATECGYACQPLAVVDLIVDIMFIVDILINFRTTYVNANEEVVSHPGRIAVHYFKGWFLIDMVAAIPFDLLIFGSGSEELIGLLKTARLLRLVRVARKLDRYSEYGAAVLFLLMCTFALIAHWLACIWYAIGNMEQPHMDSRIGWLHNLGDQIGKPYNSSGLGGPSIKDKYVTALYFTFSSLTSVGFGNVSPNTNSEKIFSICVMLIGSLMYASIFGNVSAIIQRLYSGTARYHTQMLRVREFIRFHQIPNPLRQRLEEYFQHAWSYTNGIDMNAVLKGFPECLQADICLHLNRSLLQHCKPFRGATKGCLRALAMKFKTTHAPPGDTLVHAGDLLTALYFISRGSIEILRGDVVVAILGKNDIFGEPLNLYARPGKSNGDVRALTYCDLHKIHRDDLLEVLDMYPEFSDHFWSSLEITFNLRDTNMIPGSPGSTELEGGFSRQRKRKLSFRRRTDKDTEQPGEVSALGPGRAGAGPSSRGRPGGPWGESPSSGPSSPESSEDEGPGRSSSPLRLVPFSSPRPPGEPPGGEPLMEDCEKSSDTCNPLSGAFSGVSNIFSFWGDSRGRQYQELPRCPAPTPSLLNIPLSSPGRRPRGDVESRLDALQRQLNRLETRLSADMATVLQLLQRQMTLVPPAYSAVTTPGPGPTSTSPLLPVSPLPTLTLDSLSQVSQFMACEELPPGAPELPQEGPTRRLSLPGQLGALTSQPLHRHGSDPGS
row,Compound,"hERG current change (%, negative = inhibition) at 10uM [%]"
1,CC1CN(S(=O)(=O)c2ccc(NC(=O)CCCN3C(=O)c4ccccc4C3=O)cc2)CC(C)O1 (stereo not shown),-3.02
2,CC1CC(C)CN(C(=O)CSc2nc(N)cc(=O)[nH]2)C1 (stereo not shown),-4.45
3,Cl.Cn1nnc(C(O)CNCc2ccc(Cl)cc2)n1 (stereo not shown),4.36
4,Cc1ccc(-c2nnc(OCc3cccnc3)c3ccccc23)cc1,-75.7
5,CCCCn1c(N)c(N(CC(C)C)C(=O)CSc2n[nH]c(-c3ccc(C)cc3)n2)c(=O)[nH]c1=O,0.238
6,CCCCCCC(=O)c1c(O)n(-c2ccccc2OC)c(=O)[nH]c1=O,12.2
7,Cc1ccc(S(=O)(=O)NC2CC(C)(C)NC(C)(C)C2)cc1C,5.89
8,Cc1ccc(C(c2nnnn2C2CCCCC2)N(C)C2CCCCC2)cc1 (stereo not shown),-9.47
9,CC(=O)Nc1nnc(-c2ccc(Cl)s2)o1,-1.87
10,CCCCC(=O)Nc1nnnn1CCC,1.53
11,O=C(NC(=S)N1CCCCC1)c1csc([N+](=O)[O-])c1,11.5
12,O=C(COc1ccc([N+](=O)[O-])cc1)NNC(=O)Nc1ccc([N+](=O)[O-])cc1,-9.92
13,Cc1csc(NC(=O)C2CCCN2C(=O)Oc2ccccc2)n1 (stereo not shown),-19.8
14,O=C1/C(=C\c2cc(Cl)c(O)c(Cl)c2)SC(=S)N1Cc1ccccc1,15.9
15,Cc1nnc(N=c2ssnc2Cl)o1,21.1
16,Nc1sc2c(c1C(=O)NCCc1ccccc1)CCC2,1.56
17,Cc1c(Br)cc(C(=O)NC2CCCCC2)c(C)c1C,20.5
18,Cn1c(CSCc2ccccc2Cl)n[nH]c1=S,7.1
19,CCCCCCCC/C=C\CCCCCCCC(=O)O,11.6
20,CCc1ccc(N2CC(C(=O)Nc3nnc(CC)s3)CC2=O)cc1 (stereo not shown),-17.8

row,Compound,"hERG current change (%, negative = inhibition) at 10uM [%]"
1,CCOCCCNC(=O)C(c1ccc(C)cc1)N(Cc1ccc2c(c1)OCO2)C(=O)CNC(C)=O (stereo not shown),7.79
2,Cc1nn(Cc2ccc(F)cc2)c2sc(C(=O)Nc3ccc(N4CCOCC4)cc3N3CCOCC3)cc12,-21.6
3,O=C(CSc1nnc(-c2cccs2)n1-c1ccccc1)Nc1ccccc1,-44.3
4,S=C(Nc1ccc(Br)cc1)N1CCN(C2CCCCC2)CC1,-17.3
5,Cc1nc(N/C(N)=N/S(=O)(=O)c2ccc([N+](=O)[O-])cc2)nc2ccccc12,-46.6
6,CCCCN(CC)Cc1ccc(CNC(=O)Nc2ccc(OC)cc2OC)o1,-3.35
7,CN(CCc1ccccc1)C1CCCN(S(=O)(=O)CC(F)(F)F)C1 (stereo not shown),-3.61
8,CN(C)CP(=O)(O)CN(C)C=O,4.75
9,COc1ccc(Cc2nnc(NC(=O)c3ccco3)s2)cc1OC,5.42
10,Cc1cccc(N2CCN(C(=O)COc3cccc4c3OC(C)(C)C4)CC2)c1C,-2.16
11,CNC(=O)c1nc(C)c(C2(C)CC(c3cccc([N+](=O)[O-])c3)=NO2)s1 (stereo not shown),-23.9
12,COc1ccc(C(=O)NNC(=O)c2cc3cc([N+](=O)[O-])ccc3oc2=O)cc1OC,3.9
13,O=C(CCC(=O)c1ccc(Br)cc1)Nc1ccc(F)cc1,23.7
14,CCN1/C(=C\C(C)=O)Sc2ccc(OC)cc21,13.9
15,CC(C)(C)c1ccc(OCCC(=O)OCC(=O)NCc2ccccc2)cc1,3.21
16,COc1ccc(Nc2nc(N3CCCC3)c3ccccc3n2)cc1.Cl,-70
17,O=C(c1cc(-c2cccc(O)c2)on1)N1CCCCC1,-1.57
18,O=S(=O)(NC1CCCCCCC1)OCC(Cl)(Cl)Cl,-21.4
19,Cc1n[nH]c(C)c1S(=O)(=O)N1CCN(C(=O)c2ccco2)CC1,9.7
20,O=C(NCCc1ccccc1)C1CCC(=O)N(Cc2cccc(C(F)(F)F)c2)C1 (stereo not shown),-14.2

row,Compound,"hERG current change (%, negative = inhibition) at 10uM [%]"
1,O=C(C[n+]1cc(-c2ccc(Br)cc2)n2c1CCCCC2)c1ccccc1.[Br-],-9.11
2,O=C(OCc1cccc([N+](=O)[O-])c1)c1ccc[nH]c1=O,17.2
3,Cc1nc(SCC(=O)N2c3ccccc3Sc3ccccc32)n[nH]1,9.17
4,Cc1cccc(-c2cc3nc4c(c(NCc5ccco5)n3n2)CCCC4)c1,-28.4
5,COc1ccc(C(=O)NC(C)c2ccccc2)cc1Br (stereo not shown),-18
6,Cc1cc(C)nc(Nc2n[nH]c(-c3cccc4ccccc34)n2)n1,-28.9
7,O=C(CSc1nnc(-c2ccco2)n1Cc1ccccc1)NCc1ccccc1,-51.8
8,C=CCNC(=O)C1CCN(c2cnccn2)CC1,27.8
9,CC(C)(C)C(=O)Nc1cc(S(=O)(=O)Nc2ccc(Cl)cc2)ccc1O,13.6
10,O=C(Nc1ccc(Cc2ccncc2)cc1)c1cccs1,-28.2
11,O=C(C1CCCN1S(=O)(=O)c1ccc(Cl)cc1)N1CCOCC1 (stereo not shown),4.19
12,CCOC(=O)C1C2C=CC3(CN(CCc4ccccc4)C(=O)C13)O2 (stereo not shown),8.39
13,COc1ccccc1CCC(=O)OCC(=O)NC1CCCC1,0.299
14,COc1ccc(C[C@H]2CN3C(=NC[C@@H]3C(C)C)N2CCNC(=O)c2ccc(C)c(Br)c2)cc1,-79
15,Cc1csc2c(N3CCN(C(=O)Nc4ccccc4)CC3)ncnc12,-25.4
16,NC(=O)CC(NC(=O)c1ccccc1)c1ccc(NCCOc2ccccc2)c([N+](=O)[O-])c1 (stereo not shown),-4.06
17,O=C(Nc1ccc(N2CCCC2)c(Cl)c1)c1ccc(Br)o1,-7.29
18,Cc1cccc(C(=O)OCC(=O)c2ccc(CC(=O)N3CCOCC3)s2)c1C,-52.4

# Reference: article PMC4336329 (PLoS ONE, 2015)
